Laboratory results taken from the supplement of paper PMC3334620.
In all, about 33,000 sequences were measured (“E-score (-0.5 to 0.5)”: median about -0.017, highest 2% from about 0.3 on). The list shows a part of the results.

target: T1, Sut1 (UniProt P53032); assay: PBM E-score (8-mer binding enrichment) (E-score (-0.5 to 0.5)); higher = stronger / more preferred TF binding; most listed sequences are background and not binding sites; settings: protein concentration: 200 nM; construct: GST-full length
T1 sequence: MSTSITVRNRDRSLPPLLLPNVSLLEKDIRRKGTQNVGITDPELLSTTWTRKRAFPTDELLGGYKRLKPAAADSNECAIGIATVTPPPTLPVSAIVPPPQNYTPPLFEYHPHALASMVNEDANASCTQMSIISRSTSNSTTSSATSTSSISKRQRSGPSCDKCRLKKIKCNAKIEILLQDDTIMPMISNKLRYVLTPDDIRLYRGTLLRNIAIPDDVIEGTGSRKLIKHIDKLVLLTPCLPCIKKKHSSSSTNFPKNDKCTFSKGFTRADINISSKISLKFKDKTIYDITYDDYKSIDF
Outline: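 Each ungapped eight-base word and its reverse complement, pooled, received an E-score from the Universal PBM Analysis Suite. Underlying scans, normalised with masliner, recorded fluorescent anti-GST bound to GST-tagged yeast transcription factors. These were applied at about 100-200 nM to universal all-10-mer Agilent arrays double-stranded by primer extension.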

Row | Sequence | PBM E-score
1 | GTGAAGTA | 0.0657
2 | CCCGAGGG | -0.128
3 | ATTTCGTC | 0.0604
4 | TATAACAA | 0.319
5 | CCTGTACC | -0.193
6 | AATGAGAA | 0.149
7 | CCGACAAC | -0.0367
8 | AACTTAGT | -0.0345
9 | ATCATGTG | 0.0581
10 | CGGGATAC | -0.148
11 | GGCTCCCC | -0.226
12 | ATAATGCG | 0.102
13 | GCCTGGGA | -0.263
14 | ACTGATCG | -0.0985
15 | ACGGCAGA | -0.0292
16 | CATCGAAC | -0.0517
17 | AAACTACA | 0.191
18 | ACAGAAGC | 0.0765
19 | GCCATGGC | -0.275
20 | CTCCCAGA | -0.211
21 | ATACGAAC | 0.115
22 | GAGGGGGA | -0.29

Row | Sequence | PBM E-score
23 | AGCACCCA | -0.101
24 | AGTTCCTA | 0.0198
25 | CCGCCGGC | 0.158
26 | CCGTCAGA | -0.282
27 | ACACAAAA | 0.164
28 | ACTGAAAC | 0.218
29 | CTTTCCCC | 0.0436
30 | AGCTGCTG | -0.0338
31 | ATGTTGTA | 0.132
32 | ACTGTGTG | -0.0933
33 | ATTTTTAC | 0.123
34 | AACCTAGT | 0.163
35 | ACAGTAGT | -0.142
36 | CGTCTATA | 0.108
37 | CACGACCC | -0.329
38 | GCGTAGAA | 0.0238
39 | GACCTAAC | 0.104
40 | AAGTGTGT | -0.136
41 | GGAAAGGA | 0.0579
42 | AACGCCGG | 0.0841
43 | CTAAACGA | -0.0248
44 | CTTCTCGA | -0.0646

Row | Sequence | PBM E-score
45 | ATCTGGTG | -0.015
46 | CATATAGA | 0.253
47 | ACGCGATC | -0.0951
48 | ATGCCCAA | -0.0774
49 | GGCTTCAC | 0.0508
50 | GCCGATGA | -0.0462
51 | GAGACACC | -0.122
52 | CGAGGACA | -0.18
53 | AGTCTGAT | -0.00908
54 | TAATCACA | 0.0361
55 | ATGAACCG | 0.0188
56 | ACGAAAGC | -0.0813
57 | AATCGTCG | 0.0792
58 | ACCTTAAG | -0.024
59 | CCCCGAAA | 0.301
60 | GAGGTCAC | -0.174
61 | CGACCCCC | -0.353
62 | ACCGGTGG | -0.137
63 | GGACTCAC | -0.0577
64 | CCACAGAC | -0.251
65 | AATGACCG | 0.0862
66 | CCGTCGAC | -0.164

Row | Sequence | PBM E-score
67 | CCCCAGGA | -0.281
68 | GCTGATAC | -0.114
69 | AGAAGCTA | -0.0145
70 | CAAGGCGG | -0.108
71 | ACGTTGAC | -0.0954
72 | GCAGGTAA | 0.183
73 | GTCCCCAA | -0.0154
74 | AATGGCAC | -0.185
75 | ATACCCAA | 0.128
76 | ATCTGCTA | 0.0381
77 | ACACGCCT | -0.166
78 | CTCGCGCA | -0.187
79 | GTGGTAGA | -0.153
80 | AATGCGCG | 0.0915
81 | GTTCTAAA | 0.134
82 | AACACTTG | -0.0195
83 | GCCTACAA | 0.114
84 | CCCCGAGA | 0.168
85 | TCGAGGAA | -0.0876
86 | GATGATTA | 0.0123
